# Test results from the supplement of paper PMC8728848.
# The list shows a part of the results.
# B1: PRKCE (Homo sapiens), Q02156 (protein)
# chain: MVVFNGLLKIKICEAVSLKPTAWSLRHAVGPRPQTFLLDPYIALNVDDSRIGQTATKQKTNSPAWHDEFVTDVCNGRKIELAVFHDAPIGYDDFVANCTIQFEELLQNGSRHFEDWIDLEPEGRVYVIIDLSGSSGEAPKDNEERVFRERMRPRKRQGAVRRRVHQVNGHKFMATYLRQPTYCSHCRDFIWGVIGKQGYQCQVCTCVVHKRCHELIITKCAGLKKQETPDQVGSQRFSVNMPHKFGIHNYKVPTFCDHCGSLLWGLLRQGLQCKVCKMNVHRRCETNVAPNCGVDARGIAKVLADLGVTPDKITNSGQRRKKLIAGAESPQPASGSSPSEEDRSKSAPTSPCDQEIKELENNIRKALSFDNRGEEHRAASSPDGQLMSPGENGEVRQGQAKRLGLDEFNFIKVLGKGSFGKVMLAELKGKDEVYAVKVLKKDVILQDDDVDCTMTEKRILALARKHPYLTQLYCCFQTKDRLFFVMEYVNGGDLMFQIQRSRKFDEPRSRFYAAEVTSALMFLHQHGVIYRDLKLDNILLDAEGHCKLADFGMCKEGILNGVTTTTFCGTPDYIAPEILQELEYGPSVDWWALGVLMYEMMAGQPPFEADNEDDLFESILHDDVLYPVWLSKEAVSILKAFMTKNPHKRLGCVASQNGEDAIKQHPFFKEIDWVLLEQKKIKPPFKPRIKTKRDVNNFDQDFTREEPVLTLVDEAIVKQINQEEFKGFSYFGEDLMP
# Key:
# Assay in all cases: glycan array binding signal (z-score within array); higher = stronger binding
# Conditions in all cases: glycan notation: IUPAC condensed, linker removed
# [1] = target: Fuc(a1-2)[Gal(a1-3)]Gal(b1-4)[Fuc(a1-3)]Glc
# In short: (§1)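 Glycan array data came from 3228 arrays in the Consortium for Functional Glycomics database, and only arrays with an available protein sequence were kept. Glycan names were put into IUPAC-condensed notation, and columns mapping to the same glycan were averaged. The binding signal is a within-array Z-score, averaged across arrays of one protein sequence run at different concentrations or buffers and across linkers. A negative Z-score can be read as non-binding.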
# [2] = target: Fuc(a1-2)[Gal(a1-3)]Gal(b1-4)[Fuc(a1-3)]GlcNAc
# In short: as §1
# [3] = target: Fuc(a1-2)[Gal(a1-3)]Gal(b1-4)[Fuc(a1-3)]GlcNAc(b1-3)GalNAc
# In short: as §1
# [4] = target: Fuc(a1-2)[Gal(a1-4)]Gal(b1-4)GlcNAc
# In short: as §1
# [5] = target: Fuc(a1-2)[GalNAc(a1-3)]Gal
# In short: as §1
# [6] = target: Fuc(a1-2)[GalNAc(a1-3)]Gal(b1-3)GalNAc(a1-3)[Fuc(a1-2)]Gal(b1-4)GlcNAc
# In short: as §1
# [7] = target: Fuc(a1-2)[GalNAc(a1-3)]Gal(b1-3)GlcNAc
# In short: as §1
# [8] = target: Fuc(a1-2)[GalNAc(a1-3)]Gal(b1-3)GlcNAc(b1-2)Man(a1-3)[Fuc(a1-2)[GalNAc(a1-3)]Gal(b1-3)GlcNAc(b1-2)Man(a1-6)]Man(b1-4)GlcNAc(b1-4)GlcNAc
# In short: as §1
# [9] = target: Fuc(a1-2)[GalNAc(a1-3)]Gal(b1-3)GlcNAc(b1-2)Man(a1-3)[Fuc(a1-2)[GalNAc(a1-3)]Gal(b1-3)GlcNAc(b1-2)Man(a1-6)]Man(b1-4)GlcNAc(b1-4)[Fuc(a1-6)]GlcNAc
# In short: as §1
# [10] = target: Fuc(a1-2)[GalNAc(a1-3)]Gal(b1-3)GlcNAc(b1-3)GalNAc
# In short: as §1
# [11] = target: Fuc(a1-2)[GalNAc(a1-3)]Gal(b1-3)GlcNAc(b1-6)GalNAc
# In short: as §1
# [12] = target: Fuc(a1-2)[GalNAc(a1-3)]Gal(b1-4)Glc
# In short: as §1
# [13] = target: Fuc(a1-2)[GalNAc(a1-3)]Gal(b1-4)GlcNAc
# In short: as §1
# [14] = target: Fuc(a1-2)[GalNAc(a1-3)]Gal(b1-4)GlcNAc(b1-2)Man(a1-3)[Fuc(a1-2)[GalNAc(a1-3)]Gal(b1-4)GlcNAc(b1-2)Man(a1-6)]Man(b1-4)GlcNAc(b1-4)GlcNAc
# In short: as §1
# [15] = target: Fuc(a1-2)[GalNAc(a1-3)]Gal(b1-4)GlcNAc(b1-2)Man(a1-3)[Fuc(a1-2)[GalNAc(a1-3)]Gal(b1-4)GlcNAc(b1-2)Man(a1-6)]Man(b1-4)GlcNAc(b1-4)[Fuc(a1-6)]GlcNAc
# In short: as §1
# [16] = target: Fuc(a1-2)[GalNAc(a1-3)]Gal(b1-4)GlcNAc(b1-3)Gal(b1-4)GlcNAc
# In short: as §1
# [17] = target: Fuc(a1-2)[GalNAc(a1-3)]Gal(b1-4)GlcNAc(b1-3)Gal(b1-4)GlcNAc(b1-3)Gal(b1-4)GlcNAc
# In short: as §1
# [18] = target: Fuc(a1-2)[GalNAc(a1-3)]Gal(b1-4)GlcNAc(b1-3)GalNAc
# In short: as §1
# [19] = target: Fuc(a1-2)[GalNAc(a1-3)]Gal(b1-4)[Fuc(a1-3)]GlcNAc
# In short: as §1
# [20] = target: Fuc(a1-2)[GalNAc(a1-3)]Gal(b1-4)[Fuc(a1-3)]GlcNAc(b1-3)GalNAc
# In short: as §1
# [21] = target: Fuc(a1-2)[GalNAc(a1-4)]Gal(b1-4)GlcNAc
# In short: as §1
# [22] = target: Fuc(a1-2)[GalNAc(b1-3)]Gal
# In short: as §1
# [23] = target: Fuc(a1-3)GlcNAc
# In short: as §1
# [24] = target: Fuc(a1-3)[Gal(b1-4)]Glc6S
# In short: as §1
# [25] = target: Fuc(a1-3)[Gal(b1-4)]GlcNAc
# In short: as §1
# [26] = target: Fuc(a1-3)[Gal(b1-4)]GlcNAc(b1-2)Man
# In short: as §1
# [27] = target: Fuc(a1-3)[Gal(b1-4)]GlcNAc(b1-2)Man(a1-3)[Fuc(a1-3)[Gal(b1-4)]GlcNAc(b1-2)Man(a1-6)]Man(b1-4)GlcNAc(b1-4)GlcNAc
# In short: as §1
# [28] = target: Fuc(a1-3)[Gal(b1-4)]GlcNAc(b1-2)Man(a1-3)[Fuc(a1-3)[Gal(b1-4)]GlcNAc(b1-2)Man(a1-6)]Man(b1-4)GlcNAc(b1-4)[Fuc(a1-6)]GlcNAc
# In short: as §1
# [29] = target: Fuc(a1-3)[Gal(b1-4)]GlcNAc(b1-3)Gal(b1-3)[Fuc(a1-4)]GlcNAc
# In short: as §1
# [30] = target: Fuc(a1-3)[Gal(b1-4)]GlcNAc(b1-3)GalNAc
# In short: as §1
# [31] = target: Fuc(a1-3)[Gal(b1-4)]GlcNAc(b1-4)Gal(b1-4)[Fuc(a1-3)]GlcNAc
# In short: as §1
# [32] = target: Fuc(a1-3)[Gal(b1-4)]GlcNAc(b1-4)Gal(b1-4)[Fuc(a1-3)]GlcNAc(b1-4)Gal(b1-4)[Fuc(a1-3)]GlcNAc
# In short: as §1
# [33] = target: Fuc(a1-3)[Gal(b1-4)]GlcNAc(b1-6)GalNAc
# In short: as §1
# [34] = target: Fuc(a1-3)[Gal(b1-4)]GlcNAc(b1-6)[Gal(b1-3)GlcNAc(b1-3)]Gal(b1-4)Glc
# In short: as §1
# [35] = target: Fuc(a1-3)[Gal(b1-4)]GlcNAc(b1-6)[Neu5Ac(a2-3)Gal(b1-3)]GalNAc
# In short: as §1
# [36] = target: Fuc(a1-3)[Gal(b1-4)]GlcNAc6S
# In short: as §1
# [37] = target: Fuc(a1-3)[Gal3S(b1-4)]GlcNAc
# In short: as §1
# [38] = target: Fuc(a1-3)[Gal3S(b1-4)]GlcNAc6S
# In short: as §1
# [39] = target: Fuc(a1-3)[GalNAc(b1-4)]GlcNAc
# In short: as §1
# [40] = target: Fuc(a1-3)[GalNAc(b1-4)]GlcNAc6S
# In short: as §1
# [41] = target: Fuc(a1-3)[GalNAc3S(b1-4)]GlcNAc
# In short: as §1
# [42] = target: Fuc(a1-4)GlcNAc
# In short: as §1
# [43] = target: Fuc(b1-3)GlcNAc
# In short: as §1
# [44] = target: Gal(a1-2)Gal
# In short: as §1
# [45] = target: Gal(a1-3)Gal
# In short: as §1
# [46] = target: Gal(a1-3)Gal(b1-3)GlcNAc
# In short: as §1
# [47] = target: Gal(a1-3)Gal(b1-3)GlcNAc(b1-2)Man(a1-3)[Gal(a1-3)Gal(b1-3)GlcNAc(b1-2)Man(a1-6)]Man(b1-4)GlcNAc(b1-4)GlcNAc
# In short: as §1
# [48] = target: Gal(a1-3)Gal(b1-3)GlcNAc(b1-3)GalNAc
# In short: as §1
# [49] = target: Gal(a1-3)Gal(b1-3)GlcNAc(b1-6)GalNAc
# In short: as §1
# [50] = target: Gal(a1-3)Gal(b1-3)[Fuc(a1-4)]GlcNAc(b1-2)Man(a1-3)[Gal(a1-3)Gal(b1-3)[Fuc(a1-4)]GlcNAc(b1-2)Man(a1-6)]Man(b1-4)GlcNAc(b1-4)GlcNAc
# In short: as §1
# [51] = target: Gal(a1-3)Gal(b1-4)Glc
# In short: as §1
# [52] = target: Gal(a1-3)Gal(b1-4)GlcNAc
# In short: as §1
# [53] = target: Gal(a1-3)Gal(b1-4)GlcNAc(b1-3)GalNAc
# In short: as §1
# [54] = target: Gal(a1-3)Gal(b1-4)GlcNAc(b1-6)GalNAc
# In short: as §1
# [55] = target: Gal(a1-3)Gal(b1-4)[Fuc(a1-3)]GlcNAc
# In short: as §1
# [56] = target: Gal(a1-3)Gal(b1-4)[Fuc(a1-3)]GlcNAc(b1-2)Man(a1-3)[Gal(a1-3)Gal(b1-4)[Fuc(a1-3)]GlcNAc(b1-2)Man(a1-6)]Man(b1-4)GlcNAc(b1-4)GlcNAc
# In short: as §1
# [57] = target: Gal(a1-3)GalNAc
# In short: as §1
# [58] = target: Gal(a1-3)[Gal(a1-4)]Gal(b1-4)GlcNAc
# In short: as §1
# [59] = target: Gal(a1-4)Gal(b1-3)GlcNAc(b1-2)Man(a1-3)[Gal(a1-4)Gal(b1-3)GlcNAc(b1-2)Man(a1-6)]Man(b1-4)GlcNAc(b1-4)GlcNAc
# In short: as §1
# [60] = target: Gal(a1-4)Gal(b1-4)Glc
# In short: as §1
binder,measurement,setting,value
B1,glycan array binding signal (z-score),[1],-0.256
same,glycan array binding signal (z-score),[2],-0.304
same,glycan array binding signal (z-score),[3],-0.21
same,glycan array binding signal (z-score),[4],-0.321
same,glycan array binding signal (z-score),[5],-0.395
same,glycan array binding signal (z-score),[6],-0.368
same,glycan array binding signal (z-score),[7],-0.107
same,glycan array binding signal (z-score),[8],0.143
same,glycan array binding signal (z-score),[9],-0.33
same,glycan array binding signal (z-score),[10],-0.371
same,glycan array binding signal (z-score),[11],-0.271
same,glycan array binding signal (z-score),[12],-0.427
same,glycan array binding signal (z-score),[13],-0.388
same,glycan array binding signal (z-score),[14],0.015
same,glycan array binding signal (z-score),[15],-0.252
same,glycan array binding signal (z-score),[16],-0.297
same,glycan array binding signal (z-score),[17],-0.122
same,glycan array binding signal (z-score),[18],-0.23
same,glycan array binding signal (z-score),[19],1.03
same,glycan array binding signal (z-score),[20],-0.161
same,glycan array binding signal (z-score),[21],-0.364
same,glycan array binding signal (z-score),[22],-0.329
same,glycan array binding signal (z-score),[23],-0.436
same,glycan array binding signal (z-score),[24],-0.386
same,glycan array binding signal (z-score),[25],-0.245
same,glycan array binding signal (z-score),[26],2.21
same,glycan array binding signal (z-score),[27],0.843
same,glycan array binding signal (z-score),[28],0.033
same,glycan array binding signal (z-score),[29],-0.144
same,glycan array binding signal (z-score),[30],-0.364
same,glycan array binding signal (z-score),[31],-0.39
same,glycan array binding signal (z-score),[32],-0.315
same,glycan array binding signal (z-score),[33],-0.275
same,glycan array binding signal (z-score),[34],-0.287
same,glycan array binding signal (z-score),[35],-0.246
same,glycan array binding signal (z-score),[36],-0.306
same,glycan array binding signal (z-score),[37],0.149
same,glycan array binding signal (z-score),[38],-0.3
same,glycan array binding signal (z-score),[39],-0.203
same,glycan array binding signal (z-score),[40],-0.356
same,glycan array binding signal (z-score),[41],-0.055
same,glycan array binding signal (z-score),[42],-0.359
same,glycan array binding signal (z-score),[43],-0.408
same,glycan array binding signal (z-score),[44],0.035
same,glycan array binding signal (z-score),[45],-0.356
same,glycan array binding signal (z-score),[46],-0.361
same,glycan array binding signal (z-score),[47],0.18
same,glycan array binding signal (z-score),[48],-0.4
same,glycan array binding signal (z-score),[49],1.47
same,glycan array binding signal (z-score),[50],0.067
same,glycan array binding signal (z-score),[51],-0.108
same,glycan array binding signal (z-score),[52],-0.439
same,glycan array binding signal (z-score),[53],-0.299
same,glycan array binding signal (z-score),[54],-0.236
same,glycan array binding signal (z-score),[55],-0.375
same,glycan array binding signal (z-score),[56],0.183
same,glycan array binding signal (z-score),[57],-0.322
same,glycan array binding signal (z-score),[58],0.295
same,glycan array binding signal (z-score),[59],-0.305
same,glycan array binding signal (z-score),[60],-0.307
